# Experimental data as given in PubChem BioAssay AID504332 (National Center for Advancing Translational Sciences (NCATS), 2011).
# “And” between values parts separate entries of the source, which are not always exact repeats. Equal entries are not always repeated. Hit rate of the full screen: of about 350,000 compounds, about 31,000 (8.9%) were called active. The shares of active, inactive and inconclusive entries below differ from those in the screen. Calls come from the whole dose curve; as a rule, active = well fitted inhibition curve with a large enough effect; inconclusive = small, poorly fitted or top-dose-only effect; inactive = no such curve, though single readings can be large or run the other way. Potencies beside an inconclusive call are fits to weak or partial responses and may not hold up. A structure can be active in one record and inactive in another.
# Target: Histone-lysine N-methyltransferase EHMT2 (Homo sapiens) (UniProt Q96KQ7)
# UniProt Q96KQ7, sequence (Q96KQ7 whole entry, looked up): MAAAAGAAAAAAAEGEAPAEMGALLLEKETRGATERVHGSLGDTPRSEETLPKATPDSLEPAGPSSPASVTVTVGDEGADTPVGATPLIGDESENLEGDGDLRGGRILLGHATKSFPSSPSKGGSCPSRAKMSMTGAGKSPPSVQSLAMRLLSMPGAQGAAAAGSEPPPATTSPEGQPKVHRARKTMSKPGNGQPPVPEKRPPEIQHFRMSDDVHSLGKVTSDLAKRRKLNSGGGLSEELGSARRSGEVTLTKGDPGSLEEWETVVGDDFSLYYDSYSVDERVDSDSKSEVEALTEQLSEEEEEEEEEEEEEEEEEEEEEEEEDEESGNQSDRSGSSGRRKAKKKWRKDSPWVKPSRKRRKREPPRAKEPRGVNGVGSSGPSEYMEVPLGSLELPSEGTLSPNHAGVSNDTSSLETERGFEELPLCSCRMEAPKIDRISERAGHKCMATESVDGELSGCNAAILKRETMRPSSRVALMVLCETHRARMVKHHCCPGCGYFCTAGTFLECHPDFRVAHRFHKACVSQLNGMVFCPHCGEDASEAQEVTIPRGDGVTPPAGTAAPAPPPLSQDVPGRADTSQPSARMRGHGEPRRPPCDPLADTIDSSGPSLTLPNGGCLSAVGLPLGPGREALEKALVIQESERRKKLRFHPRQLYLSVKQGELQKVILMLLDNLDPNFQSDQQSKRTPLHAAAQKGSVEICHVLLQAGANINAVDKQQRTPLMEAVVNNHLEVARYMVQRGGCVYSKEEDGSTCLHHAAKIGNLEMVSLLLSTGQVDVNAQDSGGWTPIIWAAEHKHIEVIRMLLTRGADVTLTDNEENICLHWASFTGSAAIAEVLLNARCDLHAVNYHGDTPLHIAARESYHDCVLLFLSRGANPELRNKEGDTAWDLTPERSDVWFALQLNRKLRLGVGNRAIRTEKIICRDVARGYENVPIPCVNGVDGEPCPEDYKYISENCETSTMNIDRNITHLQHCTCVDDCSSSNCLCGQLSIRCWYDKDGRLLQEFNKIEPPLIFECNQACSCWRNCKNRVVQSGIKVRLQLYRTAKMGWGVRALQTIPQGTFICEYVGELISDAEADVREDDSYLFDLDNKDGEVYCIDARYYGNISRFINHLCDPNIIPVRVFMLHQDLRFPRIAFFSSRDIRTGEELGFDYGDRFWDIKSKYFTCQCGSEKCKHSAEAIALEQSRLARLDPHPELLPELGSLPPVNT
# Assay: qHTS Assay for Inhibitors of Histone Lysine Methyltransferase G9a; note: nearly all actives have a fitted effect of over 75% in size
# Conditions: G9a H3K9 monomethylation, AlphaScreen, 2 h; activity, negative = inhibition: at 59 µM (top of the series) unless noted
# Method in brief: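 Compounds were preincubated with 20 nM G9a for 15 min, after which biotinylated H3K9 peptide (500 nM) and SAM (20 uM) started a 2 h room-temperature reaction. Monomethylated product was quantified by antibody-based AlphaScreen chemiluminescence.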
# % is set by controls: 0 for no effect and ±100 for the full control effect; potency is the fitted concentration of half-maximal effect; tags give direction and shape of the fitted curve.
Structure (SMILES),Potency,"activity, negative = inhibition"
CCCCCSc1cc(O)c(C(CNC)C(C)C)cc1OC (stereo unspecified),active: 11.2 µM,–
Cc1cc(C=C2C(=O)NC(=S)NC2=O)c(C)n1C1CCCC1,active: 44.7 µM,–
N#CCP(=S)(c1ccccc1)c1ccccc1,"inconclusive: 89.1 µM [inhibitor, single point]",–
Oc1ccc2c3c1OC1C(O)CC[C@]4(O)C(C2)N(CC2CCC2)CC[C@]314 (stereo partly specified),–,inactive: -48.7% [at 2.33 µM]
C[N+](C)(C)CCOC(=O)CBr,inactive and active: 25.1 µM,–
CCOc1ccc(N2C(=O)CC(=O)NC2=O)cc1,–,inactive: -7.51% [at 0.501 µM]
CCOC(=O)c1c(C)[nH]c(C)c1S(=O)(=O)NCC(=O)N1CCN(c2cc(Cl)ccc2C)CC1,"inconclusive: 3.98 µM [inhibitor, partial curve]",–
CCC(=NCc1ccco1)c1c(O)n(C2CCCCC2)c(=O)[nH]c1=O,"inconclusive: 50.1 µM [inhibitor, partial curve, poor fit]",–
O=C(CF)NC(Nc1cccc2cccnc12)C(Cl)(Cl)Cl (stereo unspecified),inactive,–
O=[N+]([O-])C(Br)(CO)CO,active: 1.78 µM,–
Cc1cc(C)cc(NC(=O)Cn2c(=O)oc3cc(S(=O)(=O)N4CC(C)CC(C)C4)ccc32)c1 (stereo unspecified),"inconclusive: 89.1 µM [inhibitor, partial curve, poor fit]",–
OC(COCc1ccc(Cl)cc1)CN1CC=C(c2ccccc2)CC1 (stereo unspecified),"inconclusive: 10 µM [inhibitor, partial curve, poor fit]",–
O=P(/C(=N/O)N1CCOCC1)(N1CCOCC1)N1CCOCC1,active: 14.1 µM,–
CCCn1c(C(=O)c2ccccc2)nc2ccccc21,"inconclusive: 1.26 µM [inhibitor, partial curve, poor fit]",–
CCOc1ccc(-n2c(/C=C/c3ccccc3)nc3ccccc3c2=O)cc1,inactive,–
C=CCN1CC[C@]23c4c5ccc(O)c4O[C@@H]2C(=O)CC[C@]3(O)[C@H]1C5,inactive,–
CN(C)CCN(C(=O)c1cc(Cl)sc1Cl)c1nc2ccc(F)cc2s1,active: 11.2 µM,–
CN1C(=O)C(C2(C#N)CCCCC2)C(=O)N(C)C1=O,active: 50.1 µM,–
Cc1cccc(-n2c(O)c(/C=C3/C(c4ccccc4)=Nc4ccccc43)c(=O)[nH]c2=O)c1,–,inconclusive: -84% [inhibitor]
O=[N+]([O-])c1ccc(S(=O)(=O)N2CCn3cccc3C2c2ccccc2F)cc1 (stereo unspecified),"inconclusive: 20 µM [inhibitor, single point]",–
Cc1c(N=Cc2c(O)n(Cc3ccc(F)cc3)c(=O)[nH]c2=O)c(=O)n(-c2ccccc2)n1C,inactive,–
